About 1,700 (3.3%) of roughly 52,000 compounds were called active. No stated cut-off is given here; in the data, active means survival mostly below about 52% (no sharp cut-off); inactive means mostly above about 56%. The list shows a part of the results.

This is an account of results in PubChem BioAssay AID463173 (ICCB-Longwood Screening Facility, Harvard Medical School, 2010).

In the assay the test system is Wild type. The assay can be described thus: S. aureus survival, RN4220 and DeltatarO strains – OD600, teichoic acid synthesis inhibitors, primary screen (AID 463173). The settings on record: S. aureus RN4220 wild type/DeltatarO growth, OD600, 18 h, stronger effect = lower value, screened at 18.75 µg/mL (by protocol).
Turning to `Cc1cccc(Oc2coc3cc(OCC(=O)NC4CCCCC4)ccc3c2=O)c1`, the survival was inactive: 80%. As for `CCOC(=O)c1oc2c(c1C)/C(=N/O)CCC2`, the figure is inactive: 117%; as for `CN(C)c1cc[n+](Cc2ccccc2)cc1`, inactive: 108%. For the compound `CCOc1ccc(N(CC)S(=O)(=O)N2CCCC(C(=O)NCCc3ccccc3OC)C2)cc1` (configuration not stated), the survival is inactive: 86%. `CC1CCCCN1C(=O)CSc1nnc(-c2ccccc2Cl)o1` (configuration not stated): the survival is inactive: 76%. Regarding `COc1ccccc1CNC(=O)Cn1c(=O)ccc2cc(S(=O)(=O)N3CCCC3)ccc21`, the survival is inactive: 73%. Regarding `O=C(Nc1ccc(C(=O)N2CCN(c3ccc(Cl)cc3)CC2)cc1)c1nsc2ccccc12`, the survival was inactive: 81%.

As to `Cc1ccc(O)c(C2=Nc3ccccc3N=C(c3cccc(F)c3)C2)c1`, the survival was inactive: 139%. Turning to `COc1ccc(Br)cc1CNC(=O)C1COc2ccccc2C1` (configuration not stated), the survival was inactive: 22%.

As to `Cc1ccc2oc(-c3cc(NC(=O)c4cccs4)cc(C)c3O)nc2c1`, the survival is inactive: 163%. As for `Cc1ccc(Cl)cc1N1CCN(c2ncnc3onc(-c4ccc(F)cc4)c23)CC1`, the survival was inactive: 89%. `Cc1ccc(Cn2c(C)c(CNC(C)c3ccccc3)c(C(=O)O)c2C)cc1` (configuration not stated): the survival was inactive: 128%. With `O=C(c1ccc(CS(=O)(=O)c2c(Cl)cccc2Cl)o1)N1CCN(c2ccccc2)CC1`, the survival is inactive: 126%. In the case of `Cc1ccc(-n2c(SCC(N)=O)nc3c([nH]c4ccccc43)c2=O)cc1`, the survival is inactive: 134%. `Cc1cncn1CCc1nc2c3ccccc3nc(SCC(=O)Nc3ccccc3F)n2n1`: the survival was inactive: 68%.

For the compound `CC(C)(C)c1ccc(-c2noc(CCC(=O)Nc3cccc(Cl)c3)n2)cc1`, the survival is inactive: 87%.

As for `CCOC(=O)N1CCN(C(=O)CN(c2cc(C)ccc2OC)S(=O)(=O)c2ccc(C)cc2)CC1`, the survival is inactive: 96%. Take `Cc1ccc(S(=O)(=O)Cc2nc(-c3ccc(C(=O)NCc4ccccc4F)cc3)oc2C)cc1`: the survival is inactive: 128%. Regarding `CCOc1ccccc1CNC(=O)C1CCCN(S(=O)(=O)c2ccc3c(ccn3C)c2)C1` (configuration not stated), the survival was inactive: 79%. Take `CCN(CC)CC(=O)Nc1nc2ccc(OC)cc2s1`: the survival was inactive: 103%. On to `CCc1ccc(-n2nc(C)c3c(C(=O)Nc4cc(C)ccc4C)cc(C)nc32)cc1`, for which the survival was inactive: 47%. In the case of `COc1nc(-c2ccc(C)cc2)ccc1-c1noc(-c2ccc(C(C)(C)C)cc2)n1`, the survival is inactive: 32%. With `COc1ccc(OC)c(S(=O)(=O)NCCc2csc3nc(-c4ccccc4)nn23)c1`, the survival was active: -3%. With `Cc1ccc(NC(=O)c2cc(S(=O)(=O)N3CCCC3)c[nH]2)c(C)c1`, the survival was inactive: 113%. Take `Cc1cccc(N2CCN(C(=O)c3ccc4c(c3)c(C)c(C)n4C)CC2C)c1` (configuration not stated): the survival is inactive: 126%. Turning to `COc1ccccc1N1CCN(c2cc(C)nc3nc(-c4ccc(Cl)cc4)nn23)CC1`, the survival was inactive: 78%. Regarding `CC1CCN(S(=O)(=O)c2nnc(NC(=O)c3cccc(F)c3)s2)CC1`, the survival is inactive: 43%. Turning to `COC(=O)c1sc2cccc(F)c2c1S(=O)(=O)N1CCN(c2ccc(C)cc2C)CC1`, the survival is inactive: 66%. As to `CCOC(=O)c1c(NC(=O)COc2ccc(Cl)cc2C)sc(C(C)=O)c1C`, the survival is inactive: 77%. On to `CCN1CCN(c2cc(C)c3cc(NC(=O)c4ccccc4F)ccc3n2)CC1`, for which the survival is inactive: 68%.

Take `CC(=O)N1CCc2cc(Br)cc(S(=O)(=O)CCC(=O)Nc3ccc(C)cc3Cl)c21`: the survival was inactive: 65%. For `CCOc1ccc2oc(=O)cc(CN3CCN(c4ccc(Cl)cc4)CC3)c2c1`, the survival was inactive: 111%.

With `CCc1c(C)c2ccc(O)c(CN3CCN(c4ccccc4)CC3)c2oc1=O`, the survival is inactive: 84%. Take `Cc1c(C(=O)N(Cc2ccc(N(C)C)cc2)CC2CCCO2)oc2ccc(Br)cc12` (configuration not stated): the survival was inactive: 81%. Under `O=c1[nH]cnc2scc(-c3ccsc3)c12` stands inactive: 103%; under `CCc1cccc(C)c1NC(=O)CN(C)S(=O)(=O)c1cccc2nsnc12`, inactive: 79%; under `Cc1ccc(N2CCN(c3nc4c(S(=O)(=O)c5ccc(C)c(C)c5)nnn4c4ccccc34)CC2)c(C)c1`, inactive: 84%.

Consider `COc1ccc(C)cc1NC(=O)N1CCC(CN2CCC(C)CC2)CC1`, for which the survival is inactive: 77%. As for `CC(C)(C)C(=O)NC(Cc1c[nH]c2ccccc12)C(=O)O` (configuration not stated), the figure is inactive: 111%; as for `Cc1ccc(S(=O)(=O)c2cn(C)c3cc(N4CCCCC4)c(F)cc3c2=O)cc1`, inactive: 74%; as for `CNC(=O)C1CCC(Cn2c(=O)c3sccc3n(CC(=O)NCc3cccc(OC)c3)c2=O)CC1` (configuration not stated), inactive: 89%. As for `Cc1cccc(-c2nc3scc(CCNC(=O)c4ccc(Br)o4)n3n2)c1`, the figure is inactive: 74%.

On to `CCC(CC)C(=O)Nc1ccc(-c2cn3cccnc3n2)cc1`, for which the survival is inactive: 89%. Under `Cc1cc(C)cc(Nc2cc(C)nc3nncn23)c1` stands inactive: 81%. As for `CCOC(=O)N1CCN(c2ncc3c(n2)CC(c2ccccc2O)CC3=O)CC1` (configuration not stated), the figure is inactive: 76%; as for `COc1ccc(/C=C\c2onc(C)c2S(=O)(=O)N2CCC(C(=O)Nc3cccc(Cl)c3)CC2)cc1`, inactive: 77%. As for `COc1ccccc1NC(=O)CSc1nnc2c3ccccc3n(C(C)C)c2n1`, the figure is inactive: 70%. `COc1ccc(CCNC(=O)CCc2c(C)nc3cc(-c4ccccc4OC)nn3c2C)c(OC)c1`: the survival is inactive: 79%. With `COc1ccc(CNC(=O)CN2C(=O)COc3ccc(S(=O)(=O)NC4CCCC4)cc32)cc1`, the survival is inactive: 95%. For `N#CCSc1ncccc1-c1nc2ccccc2[nH]1`, the survival was inactive: 108%. In the case of `Cc1ccc(Nc2nnc(-c3cc4c(ccc5ccccc54)oc3=O)s2)cc1`, the survival is inactive: 136%. Consider `COc1cccc(C(=O)N2CCc3c([nH]c4ccccc34)C2c2ccc(SC)cc2)c1` (configuration not stated), for which the survival is inactive: 146%. Regarding `CC(=O)n1cc(C2C(=O)CC(C)(C)CC2=O)c2ccccc21`, the survival was inactive: 115%. As for `C/C(N)=C\C(=O)Nc1ccccc1`, the survival was inactive: 106%. On to `COc1cccc(CNC(=O)CCCN2C(=O)CCn3nc(-c4cccn4C)cc32)c1`, for which the survival is inactive: 71%. In the case of `COc1cc(S(=O)(=O)N2CCN(c3ccccc3F)CC2)c(OC)cc1Cl`, the survival was inactive: 94%. As for `CCc1oc(C(=O)O)cc1CN`, the figure is inactive: 82%. For `CCn1c(=O)c2cc(C(=O)N(CC(C)C)CC(C)C)sc2c2ccccc21`, the survival is active: -1%.

Turning to `CCOc1ccc(CCNC(=O)c2csc3c2CCCCC3)cc1`, the survival is inactive: 81%. In the case of `CCOC(=O)c1cccc(NC(=O)Cn2c(=O)nc(-c3ccccc3F)c3cc(Cl)ccc32)c1`, the survival is inactive: 71%. Regarding `Cc1nnc(N(C)C(=O)c2ccc3c(c2)OCO3)s1`, the survival is inactive: 98%. `Cc1ccc(CNc2ncnc3c2nc2n3CCCC2)cc1`: the survival is inactive: 69%. `CCOC(=O)c1cc(-c2ccccc2)n(CCC(=O)NC2CCCCC2)c1C`: the survival is inactive: 88%. As to `Cc1ccc2nc(CSc3nnc(NC(=O)c4cccc(Br)c4)s3)cc(=O)n2c1`, the survival was inactive: 71%.

With `CCOC(=O)c1ccc(NC(=O)CN2c3ccccc3S(=O)(=O)c3ccccc32)cc1`, the survival was inactive: 121%.

With `CCN(C(=O)CSc1nc2ccccc2n1CC(=O)NCc1ccc(OC)cc1)c1ccccc1`, the survival is inactive: 80%. In the case of `O=C(O)c1cccn2c(=O)c3ccccc3nc12`, the survival is inactive: 114%. With `COc1ccc(NC(=O)CC2C(=O)N(c3ccc(F)cc3)C(=O)N2Cc2ccc3c(c2)OCO3)cc1` (configuration not stated), the survival was inactive: 81%. For `COc1ccc(-c2c(C)nn3c(N4CCN(c5ccccc5)CC4)cc(C)nc23)cc1OC`, the survival is inactive: 82%. Regarding `COc1ccc(/C=C(/C#N)c2nc(-c3ccc(-c4ccccc4)cc3)cs2)cc1OC`, the survival is inactive: 128%.

Turning to `CCCn1c(=N)c(C(=O)NC2CCCC2)cc2c(=O)n3cccc(C)c3nc21`, the survival is inactive: 68%. With `Cc1noc(C)c1S(=O)(=O)Nc1ccc(C(=O)Nc2ccc(Br)cc2)cc1`, the survival is inactive: 59%. Turning to `CCc1cccc(C)c1NC(=O)c1cc(S(=O)(=O)N2CCOCC2)cn1C`, the survival is inactive: 95%. Under `CCOC(=O)c1ccccc1NC(=O)n1ncc2cc(Cl)ccc21` stands inactive: 85%; under `COc1cc(NC(=O)CCn2cnc3ccccc3c2=O)cc(OC)c1`, inactive: 124%. Turning to `CCOc1cccc(C(=O)Nc2ccc3oc(-c4cccnc4)nc3c2)c1`, the survival was inactive: 75%. `N#CC(C#N)=CC1=C(N2CCCC2)CCCC1`: the survival is inactive: 93%. Under `CCCCSCCCNC(=O)c1cn(CC)c2ccc(S(=O)(=O)N3CCCCCC3)cc2c1=O` stands inactive: 76%. Regarding `COc1ccc(OCCn2c(C)nc3cc(C)c(C)cc32)cc1`, the survival was inactive: 78%.

Consider `CCCCOc1ccc(CNC(=O)c2cc3n(n2)CCCN(Cc2ccc(C)cc2)C3=O)cc1`, for which the survival was inactive: 63%. As for `CCCOc1ccc(C(=O)Nc2cc(-c3nc4cc(C)cc(C)c4o3)ccc2C)cc1`, the figure is inactive: 64%. For `Cc1cnn(Cc2ccccc2)c1N`, the survival was inactive: 108%. As for `CN1C(=O)c2ccccc2Sc2ccc(NC(=O)N3CCN(c4ccccc4F)CC3)cc21`, the survival was inactive: 83%.

Consider `Clc1ccc(CCNC(c2nnc(-c3ccccc3)o2)c2ccccc2Cl)cc1` (configuration not stated), for which the survival was active: 3%. As for `CC(C)NC(=O)C1CCN(C(=O)N2CCOc3ccc(Cl)cc32)CC1`, the figure is inactive: 82%; as for `Cc1ccc(-c2noc(-c3ccc(N4CCCCC4)c([N+](=O)[O-])c3)n2)cc1`, inactive: 82%; as for `CNC(=O)COc1ccc(NC(=O)c2ccc(-c3nn(C)c(=O)c4ccccc34)cc2)cc1`, inactive: 70%.

With `CCn1c(SCc2ccccc2Cl)nc(=O)c2c(C(=O)OC)cc(C3CC3)nc21`, the survival was inactive: 73%. For the compound `CC1(C)Cc2ccccc2-c2nnc(SCC(=O)N3CCCCC3)n21`, the survival was inactive: 102%.

With `COc1cc(-c2noc(-c3cc(C(C)C)[nH]n3)n2)cc(OC)c1OC`, the survival was inactive: 72%. In the case of `Cc1cc(C)c2c(-n3cccc3)c(C(=O)NCCCN3CCCCC3C)sc2n1` (configuration not stated), the survival is inactive: 92%. `Cc1nn(S(=O)(=O)c2ccc(Cl)cc2)c(C)c1S(=O)(=O)N1CCCCCC1`: the survival was inactive: 63%.
